This passage reports inhibition results from PubChem BioAssay AID485344 (National Center for Advancing Translational Sciences (NCATS), 2010).

Among all 340,000 compounds or so, about 6,900 (2%) were called active. No stated cut-off is given here; in the data, active means inhibition above about 30%; inactive means below that, where a call was filed. Only a part is listed here, and it is no random draw. Where no call is shown, the source filed none.

The target of the assay is D(2) dopamine receptor (Homo sapiens) (UniProt P14416). As to the kind of experiment: HTS Assay for Allosteric Antagonists of the Human D2 Dopamine Receptor: Primary Screen for Antagonists. Further: 0% is about no effect. To be noted: HEK293 TREx D2 cells, calcium flux, dopamine EC80; at 10 µM; stronger effect = higher value. The method in brief: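 Measurement of antagonist activity uses fluorescent calcium dye in inducible HEK293 T-REx D2 cells: 10 s baseline, compound addition with 180 s read, EC80 dopamine addition with a further 180 s read.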
Sequence of UniProt P14416 (P14416 whole entry, looked up): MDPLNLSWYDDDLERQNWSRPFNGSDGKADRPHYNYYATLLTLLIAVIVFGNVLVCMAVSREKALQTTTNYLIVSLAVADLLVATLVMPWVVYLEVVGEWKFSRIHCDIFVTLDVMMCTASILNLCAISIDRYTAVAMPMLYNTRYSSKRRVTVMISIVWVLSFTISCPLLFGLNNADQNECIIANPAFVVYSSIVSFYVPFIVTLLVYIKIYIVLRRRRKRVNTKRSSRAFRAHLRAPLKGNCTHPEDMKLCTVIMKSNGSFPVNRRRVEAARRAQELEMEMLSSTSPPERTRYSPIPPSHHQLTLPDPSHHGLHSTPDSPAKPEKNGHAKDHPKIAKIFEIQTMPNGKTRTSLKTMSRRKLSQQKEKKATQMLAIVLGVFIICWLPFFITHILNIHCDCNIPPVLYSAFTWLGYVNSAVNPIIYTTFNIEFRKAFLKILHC
The term inhibition denotes the change of the read-out against control, counted positive when it falls. On to `N#Cc1cccc(NC(=O)CCNS(=O)(=O)c2ccc3c(c2)CCN3C(=O)C2CC2)c1`, for which the inhibition is -17.2%. The same measure for `COc1ccc(Cl)cc1NC(=O)Cn1cnc2sc(C)c(S(=O)(=O)N3CCN(c4ccccc4OC)CC3)c2c1=O`: 12.6%; for `O=C(CC1Nc2cccc3cccc(c23)NC1=O)Nc1ccc(F)cc1` (stereo not drawn): 5.46%; for `O=C(CCn1cnc2onc(-c3ccc(F)cc3)c2c1=O)N1CCN(c2ccccc2F)CC1`: 5.93%.

Consider `C=C(C)c1cccc(C(C)(C)NC(=O)N2CCN(c3ccccn3)CC2)c1`, for which the inhibition was active: 31.2%. The value for `CNS(=O)(=O)c1cn(CC(=O)N2CCN(c3ccccc3OC)CC2)cc1S(=O)(=O)NC` was 0.123%. The value for `Cc1ccc(C(=O)CC2(O)C(=O)N(Cc3ccccc3)c3ccccc32)c(C)c1` (stereo not drawn) was -0.147%; that for `Cc1ccc2c(CC(=O)N(Cc3cccc(Cl)c3)C3CCS(=O)(=O)C3)coc2c1` (stereo not drawn) was -9.67%. The same measure for `CCOC(=O)C1CCCN(C(=O)c2ccc(NC(=O)c3nsc4ccccc34)cc2)C1` (stereo not drawn): -0.764%.

Regarding `COC(=O)c1ccccc1NC(=O)Cn1c(=O)cc(C)c2c(C)nn(-c3cccc(Cl)c3C)c21`, the inhibition stood at 7.95%. The same measure for `CC(=O)c1ccc2c(c1)N(CCCN1CCC(CCO)CC1)c1ccccc1S2`: active: 74.2%; for `Cc1cccc(C(=O)OCc2cc(=O)n3nc(-c4cccs4)sc3n2)c1`: -5.14%; for `Cc1ccc(C)c(NC(=O)Cn2c(=O)n(Cc3ccc4c(c3)OCO4)c(=O)c3ccccc32)c1`: -14%.

As for `CCCSc1nnc2n(-c3cccc(C)c3)c(=O)c3c4c(sc3n12)CCCC4`, the inhibition is 12%. The value for `Cc1ccc(-n2ncc(C(=O)NCCCN3CCN(C)CC3)c2C2CCN(C(=O)OC(C)(C)C)CC2)c(C)c1` was -6.08%. The value for `CC(C)(C)OC(=O)N1CCC(c2c(C(=O)N3CCCCC3)cnn2-c2ccc(F)cc2F)CC1` was 4.99%; that for `COc1ccc(OC)c(Nc2c3c(nc4ccccc24)CCC3)c1` was 4.87%; that for `COc1cc(Cl)c(NC(=O)C(NS(=O)(=O)c2cccs2)C(C)C)c(OC)c1` (stereo not drawn) was 1.94%. In the case of `CCCN(Cc1cccs1)C(=O)Nc1ccc(F)c(Cl)c1`, the inhibition was -5.53%. For `CCc1ccc(NC(=O)c2ccc(F)c(S(=O)(=O)NCCc3ccc(OC)c(OC)c3)c2)cc1`, the inhibition is 13.4%. The same measure for `CS(=O)(=O)N1CCc2cc(C(=O)Nc3ccc(S(N)(=O)=O)cc3)ccc21`: -2.41%; for `Cc1ccc(C)c(CN2CCN(c3ncccn3)CC2)c1`: active: 59.8%; for `COc1cccc(Nc2sc(C(=O)c3ccc(Cl)cc3)c(N)c2C(=O)NCCc2ccc(OC)c(OC)c2)c1`: -13.5%. For the compound `CCOc1ccc2c(c1)c(=O)c(C(=O)c1ccc(C)cc1)cn2Cc1ccccc1OC`, the inhibition was 21.8%. For `CCOc1ccccc1NC(=O)CN1C(=O)C2(SCC(=O)N2c2ccc(C)cc2)c2ccccc21` (stereo not drawn), the inhibition is -3.79%. The value for `CC(C)c1ccc(NC(=O)Cn2c(=O)n(Cc3nc(-c4ccccc4)no3)c(=O)c3cc4c(cc32)OCO4)cc1` was 6.8%. On to `CC(=O)c1cccc(NC(=O)N2CCC(CN3CCCCC3)CC2)c1`, for which the inhibition was -14.4%. As for `Cc1ccc(-n2ncc3c(=O)n(Cc4ccccc4C)cnc32)cc1C`, the inhibition came out at 4.64%. Turning to `Cc1cc(C)c(CN2C(=O)c3ccccc3S(=O)(=O)c3ccc(C(=O)OCC4CCCO4)cc32)c(C)c1` (stereo not drawn), the inhibition was found to be 4.59%. As to `CCS(=O)(=O)c1ncc(Cl)c(C(=O)N(Cc2ccccc2)c2ccc(OC)cc2)n1`, the inhibition was found to be 12.5%. `O=C(Cc1ccc(Cl)cc1)Nc1ccc2nn(-c3ccccc3)nc2c1`: the inhibition was 7.38%.

For `CC(C)CCNc1ncnc2c1cnn2-c1cccc(Cl)c1`, the inhibition was found to be 9.82%.

For the compound `Cc1ccc(-n2c(SCC(=O)Nc3c(C)cccc3C)nc(O)c(C)c2=O)cc1`, the inhibition was -7.58%.

As to `COCCNC(=O)C(=O)NCC(c1cccnc1)N1CCN(c2ccccc2)CC1` (stereo not drawn), the inhibition was 21.6%. For the compound `CC(C)N(Cc1nc(-c2ccccc2)no1)C(=O)c1ccc2c(c1)OCO2`, the inhibition is active: 31.4%. The same measure for `COc1ccc(-n2cc(-c3ccc4c(c3)OCO4)n(CC(=O)Nc3cccc(C)c3)c2=O)cc1`: 22.3%; for `O=C(CC1N=C2c3ccccc3N=C(SCC(=O)Nc3ccc(F)cc3)N2C1=O)NCc1ccc2c(c1)OCO2` (stereo not drawn): 11.8%. On to `COc1cccc(-c2n[nH]c3c2C(c2ccccn2)N(C)C3=O)c1` (stereo not drawn), for which the inhibition is -1.22%.

Regarding `COc1ccc(NC(=O)CCN2CCN(c3ccc(F)cc3)CC2)cc1`, the inhibition was active: 76.8%.

Consider `Cc1cccc(NC(=O)Cn2cc(S(=O)(=O)Cc3ccccc3Cl)c3ccccc32)c1`, for which the inhibition is -5.16%.

With `Cc1cc(C)n(C(C)CC(=O)Nc2ccc(C)c(F)c2)n1` (stereo not drawn), the inhibition came to 13%.

Take `Cc1ccccc1Cn1c(SCc2ccc(C(=O)NCCc3ccccc3)cc2)nc2ccncc21`: the inhibition worked out at 9.83%. Turning to `CSc1ncc(Cl)c(C(=O)N(Cc2ccc(C(C)C)cc2)C2CCS(=O)(=O)C2)n1` (stereo not drawn), the inhibition is -2.71%.

On to `CCn1c(=O)c2sccc2n2c(CCCC(=O)Nc3ccc(OC)c(OC)c3)nnc12`, for which the inhibition worked out at 4.25%. Turning to `O=C(c1ccc(Cn2c(=S)[nH]c3ccccc3c2=O)cc1)N1CCN(c2ccccn2)CC1`, the inhibition is active: 32.8%. The value for `CC(Nc1oc(-c2ccc(COc3ccc(Cl)cc3)o2)nc1C#N)c1ccccc1` (stereo not drawn) was -6%; that for `CCN(CC)CCCNC(=O)CN1C(=O)COc2ccc(S(=O)(=O)N3CCC(C)CC3)cc21` was -1.41%. The same measure for `CCN(CC)c1ccc(NC(=O)CN2C(=O)c3cccnc3Oc3ccc(Cl)cc32)c(C)c1`: 8.72%; for `O=C(NCc1ccccc1)c1ccc2c(c1)nc1n2CCOC1`: 1.85%. The same measure for `CCOC(=O)Cn1c(=O)n(CC2CCCO2)c2nc(-c3c(F)cccc3Cl)nc(C(N)=O)c21` (stereo not drawn): -1.27%.

As to `CCc1cccc(NS(=O)(=O)c2cc(-c3cnc(C)o3)ccc2OC)c1`, the inhibition was found to be 12.5%.

For the compound `CCc1ccccc1NS(=O)(=O)c1cc(Br)cc2c1N(C(=O)C1CC1)CC2`, the inhibition amounted to 3.15%. The same measure for `CCN(CC)c1cc2c(cc1F)c(=O)c(S(=O)(=O)c1ccccc1)cn2C`: -12.1%; for `COC(=O)c1c(NC(=O)/C=C/c2ccc(OC)c(OC)c2)sc2c1CCC2`: -2.98%. The same measure for `CCn1cc(S(=O)(=O)c2ccc(C)cc2C)c(=O)c2cc(F)c(N3CCCCC3)cc21`: -0.279%; for `CCOc1ccc(NC(=O)CN2CCSc3ccc(S(=O)(=O)N4CCCC4)cc32)cc1`: -2.58%. The same measure for `Cc1cc(C)cc(N(CC(=O)NCc2ccccc2Cl)S(=O)(=O)c2c(C)[nH]c(=O)[nH]c2=O)c1`: -25.1%; for `Cc1noc(Cn2c(=O)c3ccccc3n(CC(=O)Nc3ccc(C(C)C)cc3)c2=O)n1`: 2.88%.
